Reference: the supplement of paper PMC3334620
Whole data set: some 33,000 sequences, median “E-score (-0.5 to 0.5)” near -0.016, cut for the highest 2% near 0.31. The list shows a part of the results.

What follows are sequences tested against Cst6 (UniProt P40535) (assay: PBM E-score (8-mer binding enrichment) (E-score (-0.5 to 0.5)); higher = stronger / more preferred TF binding; most listed sequences are background and not binding sites). Conditions: protein concentration: 200 nM; construct: GST-DNA-binding domain.
Experimental: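 Universal 'all 10-mer' protein binding microarrays (Agilent AMADID 015681) probed with GST-tagged S. cerevisiae TFs (full-length or DBD) made by in vitro transcription/translation (PURExpress), about 100-200 nM. Bound TF was detected with fluorescent anti-GST. Each ungapped 8-mer (which stands for itself and its reverse complement) is scored by the PBM enrichment score (E-score), a modified Wilcoxon-Mann-Whitney statistic from -0.5 to +0.5, computed with the Universal PBM Analysis Suite. Scale: above 0.35 generally sequence-specific binding.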

First: CCAGACTC
Second: AAGCTGAG
The “PBM E-score” value of the first is lower: -0.221 for the first, -0.0358 for the second.

Compared with CTAAGAGA, GACACGCA is higher in “PBM E-score” value: 0.0292 for the first, 0.134 for the second.

Going from ACTAAAAG to GCTAGATA, the “PBM E-score” value falls from 0.0434 to 0.0191.

Going from GCAGAAAC to AGATCGCG, the “PBM E-score” value falls from 0.159 to 0.122.

First: AAGTTACG
Second: ATTGTAAC
The “PBM E-score” value of the first is higher: 0.241 for the first, 0.0819 for the second.

Compared with CCAGGACG, GCAGGTCC is lower in “PBM E-score” value: -0.028 for the first, -0.158 for the second.

Compared with CCACGAAC, ACATGACG is higher in “PBM E-score” value: 0.0303 for the first, 0.435 for the second.

First: GTAGATAC
Second: CACCACTA
The “PBM E-score” value of the first is higher: 0.124 for the first, 0.0598 for the second.

Compared with CAGGACCC, CGCAGTGA is higher in “PBM E-score” value: -0.227 for the first, 0.0474 for the second.

Compared with TCAAAGGA, CGCAATGC is higher in “PBM E-score” value: -0.0619 for the first, 0.132 for the second.

First: ACCACAGT
Second: ATGTTATG
The “PBM E-score” value of the first is lower: 0.0309 for the first, 0.295 for the second.

Going from GAATCTAC to CTTAGTTC, the “PBM E-score” value falls from 0.0715 to -0.027.

Compared with ACCGTTCT, AAGACGGC is higher in “PBM E-score” value: -0.214 for the first, 0.00803 for the second.

First: GAGTGCAA
Second: ACATAAGC
The “PBM E-score” value of the first is lower: -0.0418 for the first, -0.0169 for the second.

Going from GTGCACCA to ATACTCAG, the “PBM E-score” value rises from 0.0104 to 0.103.

First: CCATGATA
Second: AGAGACCT
The “PBM E-score” value of the first is higher: 0.0966 for the first, -0.0958 for the second.

Going from GCTAGGAC to TCCCTCAA, the “PBM E-score” value rises from -0.113 to -0.0304.

Going from ACGTGTCG to GATTCGGA, the “PBM E-score” value falls from 0.181 to 0.169.

Compared with ATGGTCGC, CATTGGCC is lower in “PBM E-score” value: -0.175 for the first, -0.223 for the second.

Compared with GGATATAA, CCTACCCA is lower in “PBM E-score” value: 0.236 for the first, -0.131 for the second.

Compared with CATCTAGA, TGTTAACA is lower in “PBM E-score” value: 0.019 for the first, -0.153 for the second.

Going from ACTTTTAG to GGCCGGGA, the “PBM E-score” value falls from 0.019 to -0.327.

Compared with CAGATAGC, TACGTCTA is higher in “PBM E-score” value: -0.274 for the first, 0.188 for the second.

First: AGGTCGTC
Second: AATCACAT
The “PBM E-score” value of the first is lower: -0.042 for the first, 0.125 for the second.

Going from AAGTACTT to GCTGCGAA, the “PBM E-score” value rises from -0.117 to 0.0455.

First: CGACACAA
Second: ACACAGCC
The “PBM E-score” value of the first is lower: -0.0353 for the first, 0.141 for the second.

First: GGTTCTTA
Second: AGATCACT
The “PBM E-score” value of the first is lower: 0.00132 for the first, 0.181 for the second.

Compared with CAGTTGAG, GCCTCGGA is higher in “PBM E-score” value: -0.163 for the first, -0.0928 for the second.

Compared with ACACACAT, GACTCTCA is lower in “PBM E-score” value: 0.107 for the first, -0.147 for the second.

Compared with CCTTAGAA, GTTCACAA is higher in “PBM E-score” value: 0.037 for the first, 0.13 for the second.

Compared with CTTGATCC, AAATGGTA is higher in “PBM E-score” value: -0.0116 for the first, 0.0899 for the second.

Compared with AAAATGCC, CTAGCATA is lower in “PBM E-score” value: 0.165 for the first, -0.177 for the second.

First: GATAACTA
Second: AACCCGTA
The “PBM E-score” value of the first is higher: 0.0353 for the first, -0.0464 for the second.

First: CTGAGCGC
Second: AAGGAGTC
The “PBM E-score” value of the first is higher: -0.173 for the first, -0.206 for the second.

Compared with CGGAAGGA, ACTGATAC is higher in “PBM E-score” value: -0.155 for the first, -0.0371 for the second.

Compared with ATTGACAC, AAATCTGC is lower in “PBM E-score” value: 0.0336 for the first, -0.0415 for the second.

Compared with GCTCGCCC, ATGGTTCA is higher in “PBM E-score” value: -0.255 for the first, -0.00342 for the second.

Going from GCGGTCCA to GAGGTCAA, the “PBM E-score” value rises from -0.321 to -0.0815.

Going from GAAGAGGC to ATCCAACC, the “PBM E-score” value falls from 0.0384 to -0.113.

Going from AGCGTAGG to CGTCCGGC, the “PBM E-score” value rises from -0.205 to -0.122.

Compared with AAACCGGT, CCGGTTCA is lower in “PBM E-score” value: -0.167 for the first, -0.229 for the second.

Compared with GATGCCGA, GGCGTGAC is higher in “PBM E-score” value: 0.118 for the first, 0.263 for the second.

Compared with GCTGGAGA, AACATCCT is higher in “PBM E-score” value: -0.254 for the first, -0.0218 for the second.

First: AGACGGCT
Second: GCCGGGTA
The “PBM E-score” value of the first is higher: -0.0242 for the first, -0.312 for the second.

Going from ACACTTGC to GTATAACA, the “PBM E-score” value rises from -0.0547 to 0.144.

Compared with GCTGAGAC, CGAGCTAA is higher in “PBM E-score” value: -0.181 for the first, -0.128 for the second.

Going from GCTAATGA to AGGCCTAT, the “PBM E-score” value falls from 0.0501 to -0.0919.

First: GATGCAAA
Second: AAGCATAG
The “PBM E-score” value of the first is higher: -0.00557 for the first, -0.0988 for the second.

First: ACAGTTGG
Second: GATGGAAC
The “PBM E-score” value of the first is higher: 0.0396 for the first, -0.0946 for the second.

Going from GCCTAGTA to AGAGTTAC, the “PBM E-score” value rises from -0.0619 to 0.0804.

Going from CATTATAA to AATGTTTG, the “PBM E-score” value falls from 0.124 to 0.0959.

Going from AATGCTCT to CCCTCCTA, the “PBM E-score” value falls from 0.0147 to -0.252.

Compared with GCAAATAC, GACTGAGC is lower in “PBM E-score” value: 0.111 for the first, -0.149 for the second.

First: CATCATAC
Second: ATTATCGA
The “PBM E-score” value of the first is higher: 0.374 for the first, 0.042 for the second.

Compared with GGGGTCGA, ATATCGAG is higher in “PBM E-score” value: -0.211 for the first, 0.00721 for the second.

Going from ACGAAGCA to CCGCGGTA, the “PBM E-score” value falls from 0.105 to -0.0481.

First: CAACGAGA
Second: GCTCTTAC
The “PBM E-score” value of the first is lower: 0.136 for the first, 0.139 for the second.

Compared with TGCTCAAA, GAGGGTCA is lower in “PBM E-score” value: -0.0553 for the first, -0.235 for the second.

Going from GTACATGA to CTGGCATA, the “PBM E-score” value falls from 0.158 to -0.0325.

Compared with TCTAGTCA, CACCACGC is lower in “PBM E-score” value: -0.0147 for the first, -0.0882 for the second.

Compared with CAACGAGG, CATAAGCC is lower in “PBM E-score” value: 0.00993 for the first, -0.0207 for the second.

Compared with CGTATGCA, CAGCCAGA is lower in “PBM E-score” value: 0.221 for the first, -0.32 for the second.

Compared with GAAAGCTC, AAAAGAGT is higher in “PBM E-score” value: -0.157 for the first, -0.00431 for the second.

Compared with AGAGAGGC, CAATATTG is higher in “PBM E-score” value: -0.251 for the first, 0.306 for the second.

Going from AGATTCAA to AATTGTCA, the “PBM E-score” value rises from 0.127 to 0.269.

First: CGGGGCCC
Second: TAGACAGA
The “PBM E-score” value of the first is lower: -0.0951 for the first, 0.13 for the second.

Compared with ACCGATTG, AACATGCT is lower in “PBM E-score” value: 0.0893 for the first, 0.0186 for the second.

Compared with GTAACGAA, CCCATACG is lower in “PBM E-score” value: 0.171 for the first, -0.0945 for the second.

First: ACTTCAGC
Second: GGATTACC
The “PBM E-score” value of the first is lower: -0.153 for the first, -0.121 for the second.

First: TGTGACAA
Second: GATAGGAA
The “PBM E-score” value of the first is higher: 0.117 for the first, -0.0555 for the second.

Compared with TTCCAGAA, CTTACCCA is lower in “PBM E-score” value: 0.199 for the first, -0.0433 for the second.

Going from CTGCAATA to GAGATACA, the “PBM E-score” value rises from 0.107 to 0.197.

First: AGGATCAG
Second: AGAACGCT
The “PBM E-score” value of the first is lower: -0.266 for the first, -0.151 for the second.

Going from CCAATACG to GACACGGA, the “PBM E-score” value rises from 0.0622 to 0.0706.

Going from AAGAAATT to GACCTACA, the “PBM E-score” value falls from 0.262 to -0.0676.

Compared with AAGCGTGG, CAGCGGGG is higher in “PBM E-score” value: -0.165 for the first, -0.0319 for the second.

First: GATACAAA
Second: AAAGACGT
The “PBM E-score” value of the first is lower: 0.157 for the first, 0.271 for the second.

Going from CATGGTAG to AAAACGGA, the “PBM E-score” value rises from -0.0732 to 0.171.

Compared with CGTATCAC, CATTGTAC is lower in “PBM E-score” value: 0.142 for the first, 0.033 for the second.

Compared with ACAGCAAC, GTTTCCTA is higher in “PBM E-score” value: 0.0988 for the first, 0.201 for the second.

Going from ATCCTAAG to CCGCCAGG, the “PBM E-score” value falls from -0.131 to -0.246.

First: CAGTGAGC
Second: TCCTCCCA
The “PBM E-score” value of the first is higher: -0.00176 for the first, -0.249 for the second.

Going from AGGAAGGG to CTCTAGCA, the “PBM E-score” value rises from -0.262 to -0.0453.

Going from AATCTTGG to CGGCCGTA, the “PBM E-score” value rises from -0.029 to 0.175.

First: ACTGTAGC
Second: AAAAAAAA
The “PBM E-score” value of the first is lower: -0.197 for the first, 0.317 for the second.

Going from AGGTACAC to TAGACCCA, the “PBM E-score” value rises from -0.334 to 0.0486.
